Reference: PubChem BioAssay AID1468 (National Center for Advancing Translational Sciences (NCATS), 2008)
Out of some 280,000 compounds screened, about 1,100 (0.39%) were called active. The shares of active, inactive and inconclusive entries below differ from those in the screen. Calls follow the shape of the dose curve; as a rule, active = well fitted inhibition curve with a large enough effect; inconclusive = small, poorly fitted or top-dose-only effect, or effect the other way; inactive = flat fitted curve, though single readings scatter. Potencies of inconclusive entries are left out as doubtful fits.

Molecular target: Microtubule-associated protein tau (Homo sapiens) (UniProt P10636)
Chain of UniProt P10636 (P10636 whole entry, looked up): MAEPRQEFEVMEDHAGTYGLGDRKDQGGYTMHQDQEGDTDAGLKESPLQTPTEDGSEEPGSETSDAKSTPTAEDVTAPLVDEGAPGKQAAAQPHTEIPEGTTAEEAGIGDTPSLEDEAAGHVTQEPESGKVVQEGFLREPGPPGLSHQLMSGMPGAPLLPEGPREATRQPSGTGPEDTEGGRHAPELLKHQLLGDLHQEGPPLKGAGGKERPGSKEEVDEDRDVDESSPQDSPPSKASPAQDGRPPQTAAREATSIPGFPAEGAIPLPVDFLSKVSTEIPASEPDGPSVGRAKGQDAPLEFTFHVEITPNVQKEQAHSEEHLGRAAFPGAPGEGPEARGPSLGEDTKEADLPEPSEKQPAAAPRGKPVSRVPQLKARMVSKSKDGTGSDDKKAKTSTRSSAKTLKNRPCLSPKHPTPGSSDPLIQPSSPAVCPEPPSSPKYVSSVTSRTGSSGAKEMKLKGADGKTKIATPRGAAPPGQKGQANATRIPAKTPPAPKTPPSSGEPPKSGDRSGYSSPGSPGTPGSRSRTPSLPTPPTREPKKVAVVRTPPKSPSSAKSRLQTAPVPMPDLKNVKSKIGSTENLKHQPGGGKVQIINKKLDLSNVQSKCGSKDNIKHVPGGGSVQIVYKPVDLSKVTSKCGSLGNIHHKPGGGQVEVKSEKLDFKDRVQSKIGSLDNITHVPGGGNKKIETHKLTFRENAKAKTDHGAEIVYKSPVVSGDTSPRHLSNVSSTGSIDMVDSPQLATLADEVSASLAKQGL
Assay: qHTS for Inhibitors of Tau Fibril Formation, Fluorescence Polarization; also: nearly all actives have a fitted effect of over 55% in size
Conditions: K18 P301L tau heparin fibrillization, Alexa594 FP, 6 h; series mostly up to 57.7 µM; activity, negative = inhibition: at the top concentration
Summary of the method: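 Heparin (20 uM) drove fibril formation of recombinant tau K18 P301L, 15 uM unlabeled with 0.24 uM Alexa 594 label, for 6 hr at 37 C in 100 mM sodium acetate pH 7. Fluorescence polarization (555/632 nm) read 1 hr after 30 uM ThT.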
% is scaled to controls: 0 for no effect and ±100 for the full control effect; potency is read from the fitted curve at half-maximal effect; tags tell the direction and shape of the fitted curve.

SMILES | Potency | activity, negative = inhibition
Cc1cccc(C2N(c3nccs3)C(=O)C3CCCN32)c1 (configuration not stated) | inconclusive [inhibitor, partial curve] | 
CCOC(=O)/C(=C\c1cccnc1)C(=O)c1cc(C(C)=O)c(Nc2ccccc2)s1 | inconclusive [inhibitor, single point] | 
O=C(CSC1=Nc2ccccc2C2=NC(CC(=O)NCc3ccco3)C(=O)N12)NCC1CCCO1 (configuration not stated) | inconclusive [inhibitor, single point] | 
Cc1cccc(-n2c(C)cc(/C=C3\C(=N)N4N=C(CC(C)C)SC4=NC3=O)c2C)c1 | inconclusive [activator, single point] | 
CCN(CC)c1ccc(N=Cc2ccccc2[N+](=O)[O-])cc1 | inconclusive [inhibitor, single point] | 
CCN(CC)CC(C)CNC(=O)c1cc(-c2ccc(Br)s2)nc2ccccc12 (configuration not stated) | inconclusive [inhibitor, partial curve, poor fit] | 
CCc1ccccc1NC(=O)Cn1nnc(C(=O)NCc2ccccc2Cl)c1N | inconclusive [inhibitor, single point] | 
Cc1cccc(NC2=C(NCCO)C(=O)c3ccccc3C2=O)c1 | inconclusive [inhibitor, single point] | 
COc1cccc2c1cc1c(=O)n(CC(=O)N3CCN(c4cccc(C)c4)C(C)C3)nc(C)n12 (configuration not stated) |  | inactive: 3.22%
C/C(N)=C(/C#N)C(=O)COC(=O)CNS(=O)(=O)c1c(F)cccc1F |  | inactive: -2.81%
O=S(Cc1ccc(Br)cc1)Cc1nnc(SCc2c(F)cccc2Cl)n1-c1ccccc1 (configuration not stated) | inconclusive [inhibitor, single point] | 
CN(c1ccc(O)cc1)c1nc(-c2ccccc2)cs1 | inconclusive [activator, partial curve] | 
CN(Cc1ccccc1)S(=O)(=O)c1ccc(OCC(=O)Nc2cccc([N+](=O)[O-])c2)cc1 | inconclusive [inhibitor, partial curve] | 
CC(=O)Nc1ccc(C2=NNC(=Nc3cccc(S(=O)(=O)N(C)C)c3)SC2)cc1 | inconclusive [inhibitor, partial curve, poor fit] | 
O=C(O)c1ccc(N2C(=O)Nc3ccccc3N2O)cc1 |  | inactive: 4.43%
CC(=O)c1ccc(NC(=O)CCc2c(C)nc3ncnn3c2C)cc1 |  | inactive: -0.902%
Cn1c(=O)c2c(-c3ccc(Cl)cc3)n(Cc3ccccc3)cc2n(C)c1=O |  | inactive: -6.19%
Cc1cccc(/C(N)=N/OC(=O)N2CCOCC2)c1 | inconclusive [inhibitor, single point] | 
CC(C)c1ccccc1NC(=O)COC(=O)CCN1C(=O)/C(=C\C=C\c2ccccc2)SC1=S | inconclusive [activator, partial curve, poor fit] | 
CSC(=S)N/N=C/c1ccc(Br)cc1 | inconclusive [inhibitor, full curve, poor fit] | 
CCCOc1cccc(NC(=O)c2c(-c3ccccc3Cl)noc2C)c1 | inconclusive [inhibitor, full curve, poor fit] | 

SMILES | Potency | activity, negative = inhibition
COC/C=C/C1=CC2=CC(=O)C(C)(OC(=O)c3cnc4ccccc4n3)C(=O)C2=CN1c1ccccc1 (configuration not stated) | inconclusive [inhibitor, single point] | 
Cc1cc(C)c2oc(C(=O)Nc3ccc(S(=O)(=O)N4CCCCC4)cc3)cc(=O)c2c1 | inconclusive [inhibitor, partial curve] | 
COc1cccc(NS(=O)(=O)c2ccc3c(c2)C2C=CCC2C(c2ccc(C(=O)O)cc2)N3)c1 (configuration not stated) | inconclusive [inhibitor, single point] | 
O=C(NC1=NCCS1)c1cccs1 | inconclusive [inhibitor, single point] | 
Cn1cc(/C=C(\C#N)C(=O)Nc2ncc(Cc3cccc(Cl)c3)s2)c2ccccc21 | inconclusive [inhibitor, partial curve] | 
O=C(NN1C(=O)c2ccccc2C1=O)c1ccc2c(c1)C(=O)N(CC1CCCO1)C2=O (configuration not stated) |  | inactive: -3.8%
O=C(NCCc1ccc(Cl)cc1)C1CCN(S(=O)(=O)c2cccc3nonc23)CC1 | inconclusive [inhibitor, full curve, poor fit] | 
Cc1cc(C)n2c(Nc3ccc(Cl)cc3)c(-c3ccsc3)nc2n1 |  | inactive: -9.62%
Cc1cccc(-n2nnnc2SCC(=O)c2cc(C)n(CC3CCCO3)c2C)c1 (configuration not stated) |  | inactive: -1.86%
COc1ccc(C2CC(=O)NC(NC(=O)c3ccc(Br)cc3)=N2)c(OC)c1OC (configuration not stated) |  | inactive: -8.91%
O=C(CC1S/C(=N/N=C/C=C/c2ccccc2)NC1=O)Nc1ccc(Cl)c(Cl)c1 (configuration not stated) | inconclusive [inhibitor, partial curve] | 
CC1=C(C(=O)N2CCCC(C(=O)c3cccc(C(F)(F)F)c3)C2)OCCO1 (configuration not stated) | inconclusive [inhibitor, single point] | 
O=C1OC(c2ccccc2)=C/C1=C/c1cccs1 | inconclusive [inhibitor, full curve] | 
O=C(/C=C\c1ccc2c(c1)OCO2)NC1CC(=O)N(c2ccc(Cl)cc2)C1 (configuration not stated) | inconclusive [inhibitor, partial curve] | 
CN(C)c1ccc(C(=O)n2nnc3ccccc32)cc1 |  | inactive: -10.7%
COc1ccc(-c2nc(C)sc2CC(=O)O)cc1OC | inconclusive [inhibitor, single point] | 
CCN(CC)c1cc(C)c2ccccc2n1 |  | inactive: -10.2%
Cc1ccc(-c2sc(-c3ccccc3)nc2CC(=O)Nc2ccccc2F)cc1 | inconclusive [inhibitor, partial curve] | 
O=C(Nc1ccc(N2CCCC2)c(Cl)c1)c1cccc(-c2cc3ccccc3oc2=O)c1 | inconclusive [activator, partial curve, poor fit] | 
Cc1ccc(NC(=O)Nc2ccnc(-c3cccnc3)n2)cc1 | inconclusive [inhibitor, full curve, poor fit] | 
O=C(Nc1ccc(Cl)cc1)C1=Cc2ccccc2OC1 | inconclusive [inhibitor, partial curve] | 
